Measured values from paper PMC9911399, “Two distinct binding modes provide the RNA-binding protein RbFox with extraordinary sequence specificity”.
Positions count from the first letter of the chain named. The list shows a part of the results.

T1: RBFOX1 RRM RbFoxmut (Fox-RRM*) (Homo sapiens, UniProt Q9NWB1 109-208, R118D;E147R;N151S;E152T)
T1 sequence: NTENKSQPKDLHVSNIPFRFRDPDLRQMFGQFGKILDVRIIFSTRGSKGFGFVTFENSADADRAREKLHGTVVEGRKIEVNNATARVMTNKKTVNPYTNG

B1: UCAUCUG (DNA:RNA)
RNA: GGGAGACCGGAAUUCAGAUUGUCCUCAUCUGUUAAAUCCCGUCGUAGCCACCA
DNA 1: CAATCTGAATTCCGGTCTCCC
DNA 2: TGGTGGCTACGACGGGATT
B2: CGUAUAG (DNA:RNA)
RNA: B1 RNA with U25C, C26G, A27U, U28A, C29U, U30A
DNA 1: CAATCTGAATTCCGGTCTCCC
DNA 2: TGGTGGCTACGACGGGATT
B3: CGCAUUA (DNA:RNA)
RNA: B1 RNA with U25C, C26G, A27C, U28A, C29U, G31A
DNA 1: CAATCTGAATTCCGGTCTCCC
DNA 2: TGGTGGCTACGACGGGATT
B4: UGUGUUU (DNA:RNA)
RNA: B1 RNA with C26G, A27U, U28G, C29U, G31U
DNA 1: CAATCTGAATTCCGGTCTCCC
DNA 2: TGGTGGCTACGACGGGATT
B5: AAUGGCA (DNA:RNA)
RNA: GGGAGACCGGAAUUCAGAUUGUCCAAUGGCAUUAAAUCCCGUCGUAGCCACCA
DNA 1: CAATCTGAATTCCGGTCTCCC
DNA 2: TGGTGGCTACGACGGGATT
B6: UACGGGG (DNA:RNA)
RNA: B5 RNA with A25U, U27C, C30G, A31G
DNA 1: CAATCTGAATTCCGGTCTCCC
DNA 2: TGGTGGCTACGACGGGATT
B7: UACAGAU (DNA:RNA)
RNA: B5 RNA with A25U, U27C, G28A, C30A, A31U
DNA 1: CAATCTGAATTCCGGTCTCCC
DNA 2: TGGTGGCTACGACGGGATT
B8: ACAAUUA (DNA:RNA)
RNA: B1 RNA with U25A, U28A, C29U, G31A
DNA 1: CAATCTGAATTCCGGTCTCCC
DNA 2: TGGTGGCTACGACGGGATT
B9: UUACGUU (DNA:RNA)
RNA: B1 RNA with C26U, U28C, C29G, G31U
DNA 1: CAATCTGAATTCCGGTCTCCC
DNA 2: TGGTGGCTACGACGGGATT
B10: CACCGGA (DNA:RNA)
RNA: B5 RNA with A25C, U27C, G28C, C30G
DNA 1: CAATCTGAATTCCGGTCTCCC
DNA 2: TGGTGGCTACGACGGGATT
B11: CGAGCGG (DNA:RNA)
RNA: B1 RNA with U25C, C26G, U28G, U30G
DNA 1: CAATCTGAATTCCGGTCTCCC
DNA 2: TGGTGGCTACGACGGGATT
B12: UGUGCUG (DNA:RNA)
RNA: B1 RNA with C26G, A27U, U28G
DNA 1: CAATCTGAATTCCGGTCTCCC
DNA 2: TGGTGGCTACGACGGGATT
B13: CGGUUCA (DNA:RNA)
RNA: B5 RNA with A25C, A26G, U27G, G28U, G29U
DNA 1: CAATCTGAATTCCGGTCTCCC
DNA 2: TGGTGGCTACGACGGGATT
B14: GAUUCGU (DNA:RNA)
RNA: B5 RNA with A25G, G28U, G29C, C30G, A31U
DNA 1: CAATCTGAATTCCGGTCTCCC
DNA 2: TGGTGGCTACGACGGGATT
B15: GUUGUUG (DNA:RNA)
RNA: B5 RNA with A25G, A26U, G29U, C30U, A31G
DNA 1: CAATCTGAATTCCGGTCTCCC
DNA 2: TGGTGGCTACGACGGGATT
B16: CCGCGCU (DNA:RNA)
RNA: B5 RNA with A25C, A26C, U27G, G28C, A31U
DNA 1: CAATCTGAATTCCGGTCTCCC
DNA 2: TGGTGGCTACGACGGGATT
B17: GGCUGAG (DNA:RNA)
RNA: B1 RNA with U25G, C26G, A27C, C29G, U30A
DNA 1: CAATCTGAATTCCGGTCTCCC
DNA 2: TGGTGGCTACGACGGGATT
B18: ACCUUCA (DNA:RNA)
RNA: B5 RNA with A26C, U27C, G28U, G29U
DNA 1: CAATCTGAATTCCGGTCTCCC
DNA 2: TGGTGGCTACGACGGGATT
B19: AAGGUCC (DNA:RNA)
RNA: B5 RNA with U27G, G29U, A31C
DNA 1: CAATCTGAATTCCGGTCTCCC
DNA 2: TGGTGGCTACGACGGGATT
B20: ACACGAG (DNA:RNA)
RNA: B1 RNA with U25A, U28C, C29G, U30A
DNA 1: CAATCTGAATTCCGGTCTCCC
DNA 2: TGGTGGCTACGACGGGATT
B21: AGGAGCA (DNA:RNA)
RNA: B5 RNA with A26G, U27G, G28A
DNA 1: CAATCTGAATTCCGGTCTCCC
DNA 2: TGGTGGCTACGACGGGATT
B22: UGAAUGC (DNA:RNA)
RNA: B1 RNA with C26G, U28A, C29U, U30G, G31C
DNA 1: CAATCTGAATTCCGGTCTCCC
DNA 2: TGGTGGCTACGACGGGATT
B23: UCCGAUU (DNA:RNA)
RNA: B1 RNA with A27C, U28G, C29A, G31U
DNA 1: CAATCTGAATTCCGGTCTCCC
DNA 2: TGGTGGCTACGACGGGATT
B24: GAUAGGU (DNA:RNA)
RNA: B5 RNA with A25G, G28A, C30G, A31U
DNA 1: CAATCTGAATTCCGGTCTCCC
DNA 2: TGGTGGCTACGACGGGATT
B25: ACCGUGU (DNA:RNA)
RNA: B5 RNA with A26C, U27C, G29U, C30G, A31U
DNA 1: CAATCTGAATTCCGGTCTCCC
DNA 2: TGGTGGCTACGACGGGATT
B26: UGCGGAC (DNA:RNA)
RNA: B5 RNA with A25U, A26G, U27C, C30A, A31C
DNA 1: CAATCTGAATTCCGGTCTCCC
DNA 2: TGGTGGCTACGACGGGATT
B27: GUGUGAG (DNA:RNA)
RNA: B1 RNA with U25G, C26U, A27G, C29G, U30A
DNA 1: CAATCTGAATTCCGGTCTCCC
DNA 2: TGGTGGCTACGACGGGATT
B28: CACUUCG (DNA:RNA)
RNA: B5 RNA with A25C, U27C, G28U, G29U, A31G
DNA 1: CAATCTGAATTCCGGTCTCCC
DNA 2: TGGTGGCTACGACGGGATT
B29: CUUACGC (DNA:RNA)
RNA: B5 RNA with A25C, A26U, G28A, G29C, C30G, A31C
DNA 1: CAATCTGAATTCCGGTCTCCC
DNA 2: TGGTGGCTACGACGGGATT
B30: GAUAGUA (DNA:RNA)
RNA: B5 RNA with A25G, G28A, C30U
DNA 1: CAATCTGAATTCCGGTCTCCC
DNA 2: TGGTGGCTACGACGGGATT
B31: UCUGCAC (DNA:RNA)
RNA: B1 RNA with A27U, U28G, U30A, G31C
DNA 1: CAATCTGAATTCCGGTCTCCC
DNA 2: TGGTGGCTACGACGGGATT

The binders below were run against T1, RBFOX1 RRM RbFoxmut (Fox-RRM*) (assay: EMSA; HiTS-Eq, 1 nM pool, 10 min; buffer printed only for the single-RNA assays: 10 mM Tris pH 7.5, 150 mM NaCl, 3.4 mM EDTA, 0.001% NP-40, 30 C). Conditions: tags: His6 N-terminal (pET28a); label: 5' 32P.
Outline: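 Purified RbFox RRM (wild type or mutant) was equilibrated for 10 min in 50 µL with 1 nM of a 5′-radiolabelled pool of RNA with 7 randomized nucleotides, its flanks annealed to DNA oligonucleotides, across increasing protein concentrations. Free RNA was separated by 8% native PAGE, excised, reverse-transcribed, PCR-barcoded and sequenced on an Illumina HiSeq 2500. Relative association constants came from read-count changes of each variant against the control reaction, normalised to the cognate motif.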

Binder | binding signal
B1 | 0.0789 KA relative to UGCAUGU
B2 | 0.13 KA relative to UGCAUGU
B3 | 0.14 KA relative to UGCAUGU
B4 | 0.115 KA relative to UGCAUGU
B5 | 0.126 KA relative to UGCAUGU
B6 | 0.0585 KA relative to UGCAUGU
B7 | 0.063 KA relative to UGCAUGU
B8 | 0.0959 KA relative to UGCAUGU
B9 | 0.122 KA relative to UGCAUGU
B10 | 0.0666 KA relative to UGCAUGU
B11 | 0.0942 KA relative to UGCAUGU
B12 | 0.178 KA relative to UGCAUGU
B13 | 0.112 KA relative to UGCAUGU
B14 | 0.134 KA relative to UGCAUGU
B15 | 0.15 KA relative to UGCAUGU
B16 | 0.111 KA relative to UGCAUGU

Binder | binding signal
B17 | 0.143 KA relative to UGCAUGU
B18 | 0.0895 KA relative to UGCAUGU
B19 | 0.0688 KA relative to UGCAUGU
B20 | 0.131 KA relative to UGCAUGU
B21 | 0.136 KA relative to UGCAUGU
B22 | 0.485 KA relative to UGCAUGU
B23 | 0.0694 KA relative to UGCAUGU
B24 | 0.0884 KA relative to UGCAUGU
B25 | 0.143 KA relative to UGCAUGU
B26 | 0.083 KA relative to UGCAUGU
B27 | 0.168 KA relative to UGCAUGU
B28 | 0.118 KA relative to UGCAUGU
B29 | 0.114 KA relative to UGCAUGU
B30 | 0.0954 KA relative to UGCAUGU
B31 | 0.0815 KA relative to UGCAUGU
